In general, stoichiometry N refers to the number of molecules, sites or subunits per partner or assembly.

For the experiment, the target named is ApoE4 (lipid-free) (human) (UniProt P02649). Kind of experiment: SDS-stable complex by SDS-PAGE and Western blot; 50 uM S100A9 with 2 uM lipid-free or lipidated ApoE isoform, PBS, 42 C, 70 h, non-stirring; reducing Laemmli buffer, 4-20% gel; Coomassie and Western blot with anti-S100A9 polyclonal antibody (Invitrogen).

For the substance “ApoE4 (lipid-free) (a stretch of the chain, no sequence given) (natural protein; other documents disagree on this pair)”, the stoichiometry N was determined as 2.

The values above are taken from article PMC10889306.
